Source: PubChem BioAssay AID504466 (National Center for Advancing Translational Sciences (NCATS), 2011)
Hit rate of the full screen: of about 330,000 compounds, about 4,200 (1.3%) were called active. This list was built around the results that the source calls inconclusive (neither active nor inactive); the mix of calls is not that of the screen. Calls come from the whole dose curve; as a rule, active = well fitted activation curve with a large enough effect; inconclusive = small, poorly fitted or top-dose-only effect; inactive = no such curve, though single readings can be large or run the other way. A potency beside an inconclusive call is a rough fit, not a confirmed value.

Assay: qHTS screen for small molecules that induce genotoxicity in human embryonic kidney (HEK293T) cells expressing luciferase-tagged ELG1; note: nearly all actives have a fitted effect of over 60% in size; for activity change, positive = activation: % of control where 0% means no effect
Details: HEK293T ELG1-luciferase reporter, luminescence, 16 h; series mostly up to 46 µM; activity change, positive = activation: at the top concentration
Procedure, shortened: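 After overnight (16 hr) compound treatment at 37 °C, ELG1-luciferase HEK293T cells were lysed with ONE-Glo; luminescence quantified 30 min later at room temperature.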
Potency is the fitted concentration of half-maximal effect; tags give direction and shape of the fitted curve.

| Compound | activity change, positive = activation | Potency |
| --- | --- | --- |
| O=C1CCCc2oc3c(c21)CCCC3 | inactive: -6.71% | – |
| CC(C)(C)c1cc(Br)c(O)c(N=Nc2ccc(S(=O)(=O)N3CCOCC3)cc2)c1 | inactive: -7.7% | – |
| Cc1ccc(Nc2cc(C)nc(NCc3ccccc3)n2)cc1 | inactive: -6.22% | – |
| COc1ccc(NC(=O)c2ccc(Cc3ccc(C)cc3)o2)cc1 | inactive: -0.0259% | – |
| COC(C[C@H]1O[C@H]1[C@H](O)COCc1ccccc1)OC | inactive: 2.73% | – |
| O=C(c1ccco1)c1coc2c1cc(O)c1ccccc12 | – | inconclusive: 23.1 µM [activator, partial curve, poor fit] |
| CCCCN(C(=O)Cc1cccs1)c1nnc(-c2cccnc2)s1 | inactive: 16% | – |
| Cn1c(O)c(/C=N/NC(=O)c2cc3ccccc3cc2O)c2ccccc21 | – | inconclusive: 13 µM [activator, partial curve, poor fit] |
| COc1ccc(C(=O)CCc2ccccc2O)c(OC)c1 | – | inconclusive: 14.6 µM [activator, partial curve] |
| O=C(CCSc1ccccc1)N1CCN(c2ccccc2F)CC1 | – | inconclusive: 8.2 µM [activator, partial curve] |
| CCOc1ccc(-c2cc(C(=O)N3CCN(c4ccccn4)CC3)c3ccccc3n2)cc1 | – | inconclusive: 0.58 µM [activator, full curve] |
| CCc1cc2c(=O)n(-c3ccc(Br)cc3)cnc2s1 | – | inconclusive: 2.51 µM [activator, full curve, poor fit] |
| O=c1c2sccc2nc(SCc2cc(=O)n3cc(Br)ccc3n2)n1Cc1ccccn1 | – | inconclusive: 11.6 µM [activator, partial curve, poor fit] |
| CC(C)(C)c1ccc(NC(=O)NCc2ccco2)cc1 | – | inconclusive: 20.6 µM [activator, partial curve, poor fit] |
| CN(Cc1ccccc1)C(=O)CSc1nc2ccccc2[nH]1 | – | inconclusive: 20.6 µM [activator, partial curve, poor fit] |
| O=C(CCC1COc2ccccc2O1)Nc1ccc(Cl)cn1 (configuration not stated) | – | inconclusive: 32.6 µM [activator, partial curve, poor fit] |
| COc1ccc(/C=N/OCC(=O)N2CCCC2)c(OC)c1 | inactive: 6.57% | – |
| CCCNC(=O)c1ccc2c(=O)c(O)c(-c3ccsc3)[nH]c2c1 | – | inconclusive: 32.6 µM [activator, partial curve, poor fit] |
| CC(=O)c1ccc(S(=O)(=O)N2CCCC2)cc1 | – | inconclusive: 20.6 µM [activator, partial curve, poor fit] |
| COc1ccc(OC)c(/C=N/NC2=NS(=O)(=O)c3ccccc32)c1 | inactive: 11.5% | – |
| O=C(CCc1ccccc1)Nc1cccnc1 | – | inconclusive: 18.3 µM [activator, partial curve, poor fit] |
| O=C(CSc1ccc(-c2ccccc2)nn1)N1CCOCC1 | – | inconclusive: 16.4 µM [activator, partial curve, poor fit] |
| CCCCNC(=O)Nc1nc2ccc(CC)cc2s1 | – | inconclusive: 16.4 µM [activator, partial curve, poor fit] |
| O=C(Nc1ccc(-n2cnnn2)cc1)c1cn2ccccc2n1 | – | inconclusive: 1.83 µM [activator, full curve, poor fit] |

| Compound | activity change, positive = activation | Potency |
| --- | --- | --- |
| Cc1c(Cl)cccc1NC(=O)COC(=O)c1c2c(nc3ccccc13)CCN(Cc1ccccc1)C2 | inactive: -6.89% | – |
| COc1ccccc1N1CCN(/N=C/c2ccc(C(=O)O)cc2)CC1 | – | inconclusive: 1.03 µM [activator, partial curve] |
| CCCCCC(=O)N1CCN(CCN=CC2=C(O)CC(c3cccs3)CC2=O)CC1 (configuration not stated) | – | inconclusive: 29.1 µM [activator, single point] |
| CCCCNc1nc(N)nc(-c2cc(Cl)ccc2O)n1 | – | inconclusive: 8.2 µM [activator, partial curve] |
| Cn1c(SCC(=O)Nc2cccc(Br)c2)nnc1-c1cc2ccccc2o1 | – | inconclusive: 20.6 µM [activator, single point] |
| Cc1cc(C)n2nc(NCc3cccc(Br)c3)nc2n1 | – | inconclusive: 35.5 µM [activator, partial curve, poor fit] |
| COc1cc(/C=N/NS(=O)(=O)c2ccc3ccccc3c2)ccc1OCc1ccc(C(=O)O)cc1 | – | inconclusive: 0.206 µM [activator, full curve, poor fit] |
| COc1ccc(NC(=O)Nc2ccccc2OC)cc1 | – | active: 9.2 µM |
| Cc1cccc(/C=N\NC(=O)c2ccc(Cl)cc2)c1O | – | inconclusive: 8.2 µM [activator, partial curve] |
| O=C(NCC(=O)N(CC1CCCO1)C(C(=O)NC1CCCCC1)c1cccnc1)c1cccs1 (configuration not stated) | inactive: 0.138% | – |
| CC(C)(C)c1ccc(S(=O)(=O)N2CCNC(=O)C2)cc1 | inactive: 3.58% | – |
| N#Cc1nc(COc2ccccc2)oc1NCCCn1ccnc1 | – | inconclusive: 20.6 µM [activator, partial curve] |
| COc1ccc(/C=C(\C#N)c2nc3ccc(C)cc3[nH]2)cc1Oc1ccc(C(F)(F)F)cc1[N+](=O)[O-] | – | inconclusive: 25.9 µM [activator, partial curve, poor fit] |
| COc1ccccc1Oc1ncnc2c1oc1ccccc12 | inactive: 4.88% | – |
| Cc1ccnc(Nc2nc3ccccc3o2)n1 | – | active: 1.16 µM |
| c1ccn2cc(-c3ccc4c(c3)OCO4)cc2c1 | – | inconclusive: 18.3 µM [activator, partial curve] |
| COc1ccc(/C=N/NC(=O)c2ccccc2O)cc1CSc1ccccn1 | inactive: 2.68% | – |
| Cc1cc(Cl)ccc1OC(C)C(=O)Nc1ccc(C(=O)Nc2ccccc2C(=O)O)cc1 (configuration not stated) | inactive: -16.2% | – |
| O=C(Nc1ncccc1O)c1ccc(S(=O)(=O)Nc2ccccc2)cc1 | – | inconclusive: 9.2 µM [activator, single point] |
| Cc1nn(-c2nc3ccccc3s2)c(C)c1Oc1ccccc1O | – | inconclusive: 3.26 µM [activator, full curve] |
| O=C(COC(=O)c1cc(-c2ccccc2)nc2ccccc12)NC1CC1 | inactive: 0.443% | – |
| C=CCSc1n[nH]c(-c2ccc(OCCC)cc2)n1 | – | active: 4.61 µM |
| COc1ccc(OC)c(NC(=O)c2sc3nc(C)cc(C)c3c2N)c1 | – | inconclusive: 25.9 µM [activator, partial curve, poor fit] |
